# Measurements from the supplement of paper PMC3334620.
# The full ranking holds about 33,000 sequences; the median of “E-score (-0.5 to 0.5)” is about -0.012, and the highest 2% start at about 0.27. Some of the results follow.
# Target: T1, Vhr1 (UniProt P40522)
# T1 sequence: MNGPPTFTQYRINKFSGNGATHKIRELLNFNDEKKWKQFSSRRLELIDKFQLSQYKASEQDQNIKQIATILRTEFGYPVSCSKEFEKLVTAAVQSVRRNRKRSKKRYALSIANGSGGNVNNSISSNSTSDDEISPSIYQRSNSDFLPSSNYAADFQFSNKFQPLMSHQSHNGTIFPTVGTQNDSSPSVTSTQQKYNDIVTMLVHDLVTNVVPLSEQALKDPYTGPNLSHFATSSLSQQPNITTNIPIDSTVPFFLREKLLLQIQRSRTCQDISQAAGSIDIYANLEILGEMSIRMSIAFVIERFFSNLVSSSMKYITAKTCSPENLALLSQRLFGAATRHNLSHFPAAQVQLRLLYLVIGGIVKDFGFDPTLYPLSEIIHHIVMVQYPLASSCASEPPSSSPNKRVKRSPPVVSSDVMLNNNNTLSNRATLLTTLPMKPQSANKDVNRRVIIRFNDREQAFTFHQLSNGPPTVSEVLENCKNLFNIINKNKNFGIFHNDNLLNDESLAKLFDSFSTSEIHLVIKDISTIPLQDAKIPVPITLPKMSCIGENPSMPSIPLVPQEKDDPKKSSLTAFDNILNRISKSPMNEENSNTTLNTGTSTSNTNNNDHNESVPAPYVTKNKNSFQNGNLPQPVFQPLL
# Test: PBM E-score (8-mer binding enrichment) (E-score (-0.5 to 0.5)); higher = stronger / more preferred TF binding; most listed sequences are background and not binding sites
# Conditions: protein concentration: 200 nM; construct: GST-full length
# Method in brief: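 Yeast transcription factors, full-length or as DNA-binding domains, were expressed with a GST tag using PURExpress in vitro transcription/translation. At about 100-200 nM they were applied to universal all-10-mer Agilent arrays, double-stranded by primer extension on fresh or once-stripped slides. Fluorescent anti-GST detected bound protein, and masliner normalised the scans. E-scores for ungapped eight-base words, pooled with reverse complements, came from the Universal PBM Analysis Suite.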
row,Sequence,PBM E-score
1,AAATCATC,0.245
2,AGGAATAC,-0.0219
3,TGGGGCAA,-0.186
4,CGGGTATC,0.0167
5,GCGGTCGA,0.0586
6,ATACACAG,0.257
7,GGGTTATA,0.097
8,CATAAAGC,-0.0901
9,CGCCAGAA,-0.00746
10,CATTCCAA,-0.0871
11,TTAGGAAA,-0.229
12,CTAGAAGA,-0.122
13,AAGCTCCA,0.111
14,ACCGGCCC,-0.0319
15,GATCCGGA,-0.214
16,ATAGCATC,0.118
17,AATTTCGC,-0.0528
18,ATACGGCG,0.0899
19,ATATTTAG,-0.00388
20,CCCTTGCA,-0.174
21,GGAGACGA,0.108
22,CATACGCG,0.0571
23,GCCATGAA,0.0605
24,ATGCGGCC,-0.0127
25,GTCAGACA,0.0656

row,Sequence,PBM E-score
1,AATTGCTG,0.0603
2,ATACCAAC,0.23
3,ACACGGCT,-0.0581
4,GATCGTTA,0.0319
5,CCAGGCGA,0.0158
6,ATCAGCTG,0.0408
7,CTTCCGAA,-0.121
8,TCCTAAAA,-0.177
9,CACCAGAA,-0.0944
10,AGGACACA,0.204
11,GATGACGA,0.1
12,CGGCCACC,-0.00678
13,TAACCCCA,-0.131
14,GCATCGAC,-0.0201
15,CCAATGAC,0.285
16,AATTCTAT,-0.0391
17,CCTTTGCG,-0.0296
18,ACTGAATC,0.203
19,GAGTCGTA,0.405
20,GGCCCGTA,-0.291
21,GTTGTGTA,0.148
22,AGCCCTGA,-0.138
23,AGGAATCA,0.28
24,AGTACTGC,0.0238
25,ATGTGCTG,0.261

row,Sequence,PBM E-score
1,GTCTGTGA,0.235
2,CCAATCAC,0.179
3,TCTAACAA,-0.145
4,TCCCGGCA,-0.158
5,CTTGTATA,0.0979
6,CCACCCCC,-0.0519
7,CAAGAAAG,-0.0372
8,AGGAACCA,-0.0489
9,CCGTACGA,0.08
10,CCGGCCGC,-0.048
11,CCCACGTA,0.094
12,AGTCATGC,0.443
13,GAAAATCA,-0.0196
14,CAGGACAA,-0.0306
15,ACAGTGTC,0.108
16,TGTCAAAA,-0.0057
17,AATTGTAT,0.0681
18,ATTTTGGA,-0.134
19,CACTTCCC,-0.0861
20,AAAAAAGG,-0.151
21,CTCTAGGA,-0.319
22,CTGAAATC,-0.0316
23,CTTCACCA,-0.156
24,ACACTCAG,-0.0414
25,AGGAAATA,-0.04

row,Sequence,PBM E-score
1,ACGAATCT,-0.0246
2,GCCACAAA,0.0209
3,CAGACCGA,0.142
4,CTTGATCA,0.0768
5,CGATTCAA,-0.0806
6,ATCCGGGA,-0.189
7,GCTCTGAA,-0.163
8,ATAGTCAC,0.41
9,AGTGTCCG,-0.11
10,AGGATATC,0.0193
11,AAGGTCCC,-0.111
12,ACGGTAAC,0.0764
13,ACCAGGTC,-0.106
14,AGACGAAC,0.0617
15,CTCTACAC,0.00089
16,ATCACACC,0.288
17,CATGTGGA,0.123
18,GGGCTCAC,0.0948
19,AGGGTAAC,0.0439
20,CGATGAGA,-0.0475
21,ATTAAATA,0.00492
22,ATACAGGC,-0.0617
23,CCTGCAAC,-0.103
24,ATTATCAG,-0.0402
25,AGATGTAC,-0.107

row,Sequence,PBM E-score
1,ACCAAGGC,-0.238
2,CAAACCGG,0.00117
3,CGCAAACG,-0.143
4,CGGCGCTA,-0.0911
5,GCAGATGA,0.0933
6,CCTATGTA,-0.0448
7,AGCAGGTA,-0.0119
8,GTATAGAC,0.145
9,AATTACTA,-0.156
10,CATATTAC,0.225
11,CTCCTCCC,-0.164
12,AATTGCTA,-0.188
13,ACCCCCGT,-0.164
14,CCTTACGC,-0.0785
15,ATGAGTCG,0.462
16,GACAGCTA,-0.285
17,ATTCTGGG,-0.107
18,CCCGCGGA,-0.0501
19,AAACCAAG,-0.0778
20,CATACTCC,0.125
21,AGTTGCTG,0.0513
22,AAGATACG,-0.123
23,CGCATAAG,-0.0754
24,GCTGAAAC,-0.00506
25,AATGCTGG,-0.00919

row,Sequence,PBM E-score
1,AGACTCGC,0.136
2,ACGGGGCA,-0.168
3,ATGCACAG,0.123
4,AAAACAGG,-0.232
5,CAGTCAAC,0.216
6,CAGTTTTC,-0.0401
7,AGCCTGAG,0.0464
8,AATGTCAA,-0.169
9,AGACAACC,0.095
10,GGTCGGAA,-0.00317
11,AGGACGTA,-0.248
12,ACAGGTTC,-0.0185
13,AAGTAGGA,-0.117
14,CGATACCG,0.0455
15,CCCATCGA,0.252
16,GTAAGTGA,0.0868
17,CGATATGA,0.125
18,ACTTGCTA,0.126
19,CATTAAGA,-0.357
20,ACATAAAG,-0.0861
21,AGCAGCCC,0.189
22,GGGCTCTA,-0.0249
23,TATGCAGA,0.0775
24,GACCAGTA,-0.0444
25,CCAACTTC,-0.0147

row,Sequence,PBM E-score
1,ACCCCCAG,-0.0907
2,GTGAATTA,0.139
3,GCTTCCGA,-0.121
4,CTCTGTAA,-0.126
5,ATATGGTG,0.214
6,CGTTGAAC,-0.185
7,GGGTGGTA,0.044
8,AGCGATAA,-0.0952
9,ACAGGCCT,-0.178
10,CGTAACAC,0.156
11,CTTAGAGC,-0.0903
12,AGCTTCCA,-0.0631
13,ACAGAGGT,-0.0725
14,CGTGCTAC,-0.093
15,ACCTGGTC,-0.0526
16,CGTTGTTC,-0.114
17,CAAGTAAA,-0.173
18,CTGGTAGA,0.0523
19,CCACACGC,0.228
20,GACCACGC,0.148
21,TCTCGCCA,0.0221
22,ATCTGCCG,-0.0721
